# Results from paper PMC9911399, “Two distinct binding modes provide the RNA-binding protein RbFox with extraordinary sequence specificity”.
# Changes are numbered by the printed parent chain; changes in the protein carry UniProt numbers. The list shows a part of the results.
# T1: RBFOX1 RRM (Homo sapiens, UniProt Q9NWB1 109-208)
# T1 sequence: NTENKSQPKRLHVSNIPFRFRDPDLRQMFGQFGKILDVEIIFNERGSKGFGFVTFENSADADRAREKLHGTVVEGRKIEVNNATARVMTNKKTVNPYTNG
# B1: GUAUAAC (DNA:RNA)
# RNA: GGGAGACCGGAAUUCAGAUUGUCCGUAUAACUUAAAUCCCGUCGUAGCCACCA
# DNA 1: CAATCTGAATTCCGGTCTCCC
# DNA 2: TGGTGGCTACGACGGGATT
# B2: GCUAACC (DNA:RNA)
# RNA: B1 RNA with U26C, A27U, U28A, A30C
# DNA 1: CAATCTGAATTCCGGTCTCCC
# DNA 2: TGGTGGCTACGACGGGATT
# B3: CUUUGAC (DNA:RNA)
# RNA: B1 RNA with G25C, A27U, A29G
# DNA 1: CAATCTGAATTCCGGTCTCCC
# DNA 2: TGGTGGCTACGACGGGATT
# B4: CCUAAGC (DNA:RNA)
# RNA: B1 RNA with G25C, U26C, A27U, U28A, A30G
# DNA 1: CAATCTGAATTCCGGTCTCCC
# DNA 2: TGGTGGCTACGACGGGATT
# B5: CUUUUAU (DNA:RNA)
# RNA: B1 RNA with G25C, A27U, A29U, C31U
# DNA 1: CAATCTGAATTCCGGTCTCCC
# DNA 2: TGGTGGCTACGACGGGATT
# B6: GGGCGAG (DNA:RNA)
# RNA: B1 RNA with U26G, A27G, U28C, A29G, C31G
# DNA 1: CAATCTGAATTCCGGTCTCCC
# DNA 2: TGGTGGCTACGACGGGATT
# B7: UACAGCU (DNA:RNA)
# RNA: GGGAGACCGGAAUUCAGAUUGUCCUACAGCUUUAAAUCCCGUCGUAGCCACCA
# DNA 1: CAATCTGAATTCCGGTCTCCC
# DNA 2: TGGTGGCTACGACGGGATT
# B8: UGACCAC (DNA:RNA)
# RNA: B1 RNA with G25U, U26G, U28C, A29C
# DNA 1: CAATCTGAATTCCGGTCTCCC
# DNA 2: TGGTGGCTACGACGGGATT
# B9: AUUUUCU (DNA:RNA)
# RNA: B1 RNA with G25A, A27U, A29U, A30C, C31U
# DNA 1: CAATCTGAATTCCGGTCTCCC
# DNA 2: TGGTGGCTACGACGGGATT
# B10: GUGACCG (DNA:RNA)
# RNA: B1 RNA with A27G, U28A, A29C, A30C, C31G
# DNA 1: CAATCTGAATTCCGGTCTCCC
# DNA 2: TGGTGGCTACGACGGGATT
# B11: AACUAGU (DNA:RNA)
# RNA: B7 RNA with U25A, A28U, G29A, C30G
# DNA 1: CAATCTGAATTCCGGTCTCCC
# DNA 2: TGGTGGCTACGACGGGATT
# B12: GGAUUGA (DNA:RNA)
# RNA: B1 RNA with U26G, A29U, A30G, C31A
# DNA 1: CAATCTGAATTCCGGTCTCCC
# DNA 2: TGGTGGCTACGACGGGATT
# B13: CAUGGAC (DNA:RNA)
# RNA: B1 RNA with G25C, U26A, A27U, U28G, A29G
# DNA 1: CAATCTGAATTCCGGTCTCCC
# DNA 2: TGGTGGCTACGACGGGATT
# B14: CCGUCAU (DNA:RNA)
# RNA: B1 RNA with G25C, U26C, A27G, A29C, C31U
# DNA 1: CAATCTGAATTCCGGTCTCCC
# DNA 2: TGGTGGCTACGACGGGATT
# B15: UAGGUUA (DNA:RNA)
# RNA: B7 RNA with C27G, A28G, G29U, C30U, U31A
# DNA 1: CAATCTGAATTCCGGTCTCCC
# DNA 2: TGGTGGCTACGACGGGATT
# B16: CACCUUU (DNA:RNA)
# RNA: B7 RNA with U25C, A28C, G29U, C30U
# DNA 1: CAATCTGAATTCCGGTCTCCC
# DNA 2: TGGTGGCTACGACGGGATT
# B17: GGAUCAG (DNA:RNA)
# RNA: B1 RNA with U26G, A29C, C31G
# DNA 1: CAATCTGAATTCCGGTCTCCC
# DNA 2: TGGTGGCTACGACGGGATT
# B18: AGGGGUA (DNA:RNA)
# RNA: B7 RNA with U25A, A26G, C27G, A28G, C30U, U31A
# DNA 1: CAATCTGAATTCCGGTCTCCC
# DNA 2: TGGTGGCTACGACGGGATT
# B19: UGUGACG (DNA:RNA)
# RNA: B7 RNA with A26G, C27U, A28G, G29A, U31G
# DNA 1: CAATCTGAATTCCGGTCTCCC
# DNA 2: TGGTGGCTACGACGGGATT
# B20: AGCACGA (DNA:RNA)
# RNA: B7 RNA with U25A, A26G, G29C, C30G, U31A
# DNA 1: CAATCTGAATTCCGGTCTCCC
# DNA 2: TGGTGGCTACGACGGGATT
# B21: GCGCCAA (DNA:RNA)
# RNA: B1 RNA with U26C, A27G, U28C, A29C, C31A
# DNA 1: CAATCTGAATTCCGGTCTCCC
# DNA 2: TGGTGGCTACGACGGGATT
# B22: GUAGUGU (DNA:RNA)
# RNA: B1 RNA with U28G, A29U, A30G, C31U
# DNA 1: CAATCTGAATTCCGGTCTCCC
# DNA 2: TGGTGGCTACGACGGGATT
# B23: UCACGCG (DNA:RNA)
# RNA: B7 RNA with A26C, C27A, A28C, U31G
# DNA 1: CAATCTGAATTCCGGTCTCCC
# DNA 2: TGGTGGCTACGACGGGATT
# B24: AUGAUUU (DNA:RNA)
# RNA: B7 RNA with U25A, A26U, C27G, G29U, C30U
# DNA 1: CAATCTGAATTCCGGTCTCCC
# DNA 2: TGGTGGCTACGACGGGATT
# B25: GAACAAU (DNA:RNA)
# RNA: B1 RNA with U26A, U28C, C31U
# DNA 1: CAATCTGAATTCCGGTCTCCC
# DNA 2: TGGTGGCTACGACGGGATT
# B26: CCUUCAC (DNA:RNA)
# RNA: B1 RNA with G25C, U26C, A27U, A29C
# DNA 1: CAATCTGAATTCCGGTCTCCC
# DNA 2: TGGTGGCTACGACGGGATT
# B27: UGUUAGC (DNA:RNA)
# RNA: B1 RNA with G25U, U26G, A27U, A30G
# DNA 1: CAATCTGAATTCCGGTCTCCC
# DNA 2: TGGTGGCTACGACGGGATT
# B28: AGCCAGC (DNA:RNA)
# RNA: B1 RNA with G25A, U26G, A27C, U28C, A30G
# DNA 1: CAATCTGAATTCCGGTCTCCC
# DNA 2: TGGTGGCTACGACGGGATT
# B29: GCGACGC (DNA:RNA)
# RNA: B1 RNA with U26C, A27G, U28A, A29C, A30G
# DNA 1: CAATCTGAATTCCGGTCTCCC
# DNA 2: TGGTGGCTACGACGGGATT
# B30: CCUGACG (DNA:RNA)
# RNA: B1 RNA with G25C, U26C, A27U, U28G, A30C, C31G
# DNA 1: CAATCTGAATTCCGGTCTCCC
# DNA 2: TGGTGGCTACGACGGGATT
# B31: ACAACAC (DNA:RNA)
# RNA: B1 RNA with G25A, U26C, U28A, A29C
# DNA 1: CAATCTGAATTCCGGTCTCCC
# DNA 2: TGGTGGCTACGACGGGATT
# Biological target: T1, RBFOX1 RRM
# Test: EMSA; HiTS-Eq, 1 nM pool, 10 min; buffer printed only for the single-RNA assays: 10 mM Tris pH 7.5, 150 mM NaCl, 3.4 mM EDTA, 0.001% NP-40, 30 C
# Conditions: tags: His6 N-terminal (pET28a); label: 5' 32P
# Procedure, shortened: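 These values rest on relative association constants, computed from read-count changes of each RNA species versus the control reaction and normalised to the cognate motif. Reads came from free RNA recovered by 8% native PAGE after purified RbFox RRM (wild type or mutant) at increasing concentrations was equilibrated for 10 min in 50 µL with 1 nM of a 5′-radiolabelled pool with 7 randomized nucleotides and DNA-annealed flanks.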
row,Binder,binding signal
1,B1,0.00373 KA relative to UGCAUGU
2,B2,0.00586 KA relative to UGCAUGU
3,B3,0.0117 KA relative to UGCAUGU
4,B4,0.00437 KA relative to UGCAUGU
5,B5,0.0047 KA relative to UGCAUGU
6,B6,0.0219 KA relative to UGCAUGU
7,B7,0.00395 KA relative to UGCAUGU
8,B8,0.00656 KA relative to UGCAUGU
9,B9,0.00886 KA relative to UGCAUGU
10,B10,0.0167 KA relative to UGCAUGU
11,B11,0.0052 KA relative to UGCAUGU
12,B12,0.0181 KA relative to UGCAUGU
13,B13,0.00577 KA relative to UGCAUGU
14,B14,0.00402 KA relative to UGCAUGU
15,B15,0.0132 KA relative to UGCAUGU
16,B16,0.00103 KA relative to UGCAUGU

row,Binder,binding signal
1,B17,0.0168 KA relative to UGCAUGU
2,B18,0.0196 KA relative to UGCAUGU
3,B19,0.0115 KA relative to UGCAUGU
4,B20,0.018 KA relative to UGCAUGU
5,B21,0.00989 KA relative to UGCAUGU
6,B22,0.012 KA relative to UGCAUGU
7,B23,0.00765 KA relative to UGCAUGU
8,B24,0.0105 KA relative to UGCAUGU
9,B25,0.00525 KA relative to UGCAUGU
10,B26,0.00238 KA relative to UGCAUGU
11,B27,0.0176 KA relative to UGCAUGU
12,B28,0.00679 KA relative to UGCAUGU
13,B29,0.0172 KA relative to UGCAUGU
14,B30,0.00968 KA relative to UGCAUGU
15,B31,0.0017 KA relative to UGCAUGU
